Measurements taken from PubChem BioAssay AID686978 (National Center for Advancing Translational Sciences (NCATS), 2013).
Among all 420,000 compounds or so, about 64,000 (15%) were called active. Inconclusive means that the source gave no clear call. Such entries were picked first, then a sample of the others. Calls come from the whole dose curve; as a rule, active = well fitted inhibition curve with a large enough effect; inconclusive = small, poorly fitted or top-dose-only effect; inactive = flat fitted curve, though single readings scatter. Potencies of inconclusive entries are left out as doubtful fits.

Test: qHTS for Inhibitors of human tyrosyl-DNA phosphodiesterase 1 (TDP1): qHTS in cells in absence of CPT; note: nearly all actives have a fitted effect of over 55% in size
Settings: DT40 Tdp1-/- hTDP1 cells, no CPT, ATP luminescence, 48 h; activity change, negative = growth inhibition: at 46.2 µM (top of the series)
How it was run: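 Seeded 400 DT40-hTDP1 cells/well (vehicle DMSO, no 20 nM CPT); pinned compounds; ≥48 hr at 37 °C; CellTiter-Glo luminescence as viability measure.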
% is set by controls: 0 for no effect and ±100 for the full control effect; potency is the fitted concentration of half-maximal effect; tags give direction and shape of the fitted curve.

| Compound | Potency | activity change, negative = growth inhibition |
| --- | --- | --- |
| CCOC(=O)[C@]12CCCC=C1N(Cc1ccccc1)C(=O)[C@H](CC(=O)NCC1CCCCC1)C2 | inconclusive [inhibitor, single point] | – |
| C[C@@H]1CN([C@@H](C)CO)C(=O)c2cc(N(C)C)ccc2O[C@@H](C)CCCCO[C@@H]1CN(C)Cc1ccc2c(c1)OCO2 | active: 16.4 µM | – |
| Cc1cc(Cl)c(OCCCn2cncn2)c(Br)c1 | – | inactive: -25.8% |
| Cc1ccoc1C(=O)N1CCCC(CO)(Cc2ccc(F)cc2)C1 (centres undefined) | inconclusive [inhibitor, single point] | – |
| COc1ccc(-c2oc3ccccc3c2C(=O)OCc2ccccc2OC)cc1 | inconclusive [inhibitor, single point] | – |
| Cn1ncc2c(=O)[nH]c(N)nc21 | – | inactive: 22.2% |
| OCCOCCNc1ncnc2c1cnn2-c1ccccc1 | – | inactive: -11.6% |
| O=C(CSc1nnc2n1CCCN2C(=S)Nc1ccc(Cl)cc1)c1ccccc1 | inconclusive [inhibitor, single point] | – |
| CC(C)NC(=O)c1cc(C2CCCCN2C(=O)OCCF)on1 (centres undefined) | – | inactive: 6% |
| CN(Cc1ccccc1)C(=O)C1(C)CCN1C(=O)Cc1ccc(Cl)cc1Cl (centres undefined) | inconclusive [inhibitor, single point] | – |
| COc1ccc(CN(CC(=O)NCc2ccc(F)cc2)C(=O)CCC(=O)Nc2ccccn2)cc1 | inconclusive [inhibitor, partial curve] | – |
| CCN(CC)CCCNC(=O)C1CCN(c2ncnc3c2sc2cccc(F)c23)CC1 | inconclusive [inhibitor, single point] | – |
| COc1ccc(Cc2c(-c3ccco3)nc3c(C)cc(Br)cn23)c(C)c1 | active: 2.31 µM | – |
| CC(C)OC(=O)c1nnn(-c2nonc2N)c1CN1CCc2ccccc2C1 | inconclusive [inhibitor, single point] | – |
| CC1(C(=O)NS(=O)(=O)c2ccccc2)CCN1C(=O)Cc1ccc(Cl)cc1Cl (centres undefined) | – | inactive: -18.7% |
| O=C(O)c1ccc(NNC(=S)Nc2cc(C(F)(F)F)ccc2Cl)cc1 | inconclusive [inhibitor, single point] | – |
| C(=C\c1c[nH]c2ccccc12)/c1nccc2ccccc12 | inconclusive [inhibitor, single point] | – |
| Cn1c(=O)oc2cc(S(=O)(=O)Nc3ccc4c(c3)OCCO4)ccc21 | inconclusive [inhibitor, partial curve] | – |
| COc1cc2ncc(C(=O)c3ccccc3)c(N3CCN(Cc4ccccc4)CC3)c2cc1OC | active: 18.4 µM | – |
| Cc1c(C#N)c(NC(=O)CCl)n(Cc2ccccc2)c1C | active: 2.59 µM | – |
| CCCCn1c(N)c(N(C)C(=O)C2CCCC2)c(=O)[nH]c1=O | – | inactive: -20.3% |
| CCCn1c(CCNc2nc(-c3ccc(Cl)c([N+](=O)[O-])c3)cs2)nc2cc(Cl)c(Cl)cc21 | – | inactive: -5.37% |
| CCOC(=O)c1cnn(-c2cc(C)nc3c(-c4ccccc4)c(C)nn23)c1N | inconclusive [inhibitor, partial curve] | – |

| Compound | Potency | activity change, negative = growth inhibition |
| --- | --- | --- |
| Cc1ccc(Sc2ccc(NC(=O)CCl)cc2)cc1C | inconclusive [inhibitor, single point] | – |
| Cn1c(SCC(=O)Nc2cc(Cl)cc(Cl)c2)nnc1-c1ccc2nonc2c1 | inconclusive [inhibitor, partial curve] | – |
| C/C(=N\NC(=O)c1nnn(-c2nonc2N)c1C(C)C)c1ccc2ccccc2c1 | inconclusive [inhibitor, partial curve] | – |
| COc1ccc(N(Cc2ccccc2)S(=O)(=O)c2ccc(C)cc2)cc1 | inconclusive [inhibitor, single point] | – |
| COc1ccc(C(=O)NCC(=O)N/N=C/c2ccc([N+](=O)[O-])o2)cc1OC | active: 5.17 µM | – |
| COc1ccc(-c2nc(CNS(=O)(=O)c3ccccc3)cs2)cc1 | inconclusive [inhibitor, partial curve] | – |
| O=C(Nc1cccc(Cl)c1Cl)c1ccccc1OCC(=O)N1CCOCC1 | inconclusive [inhibitor, single point] | – |
| CCOc1ccc(-n2c(SCC(=O)Nc3ccc(OC)cc3)nc3sc4c(c3c2=O)CCN(C)C4)cc1 | – | inactive: -11.7% |
| COc1cccc(CNC(=O)c2cc3c(s2)-c2c(C)cccc2OC3)c1 | inconclusive [inhibitor, single point] | – |
| CCCCN1C(=S)NC[C@@H]1C(C)CC (some centres undefined) | – | inactive: -7.9% |
| CCn1c(CNC(=O)C23CC4CC(CC(C4)C2)C3)nnc1SCC(=O)Nc1ccccc1 | inconclusive [inhibitor, partial curve, poor fit] | – |
| O=S(=O)(c1cccc(Cl)c1)N1CN(CC2CCCO2)c2nc3ccccc3nc21 (centres undefined) | inconclusive [inhibitor, single point] | – |
| O=C(CCNS(=O)(=O)c1ccccc1C(F)(F)F)NNC(=O)C1COc2ccccc2O1 (centres undefined) | – | inactive: -9.6% |
| O=C(NC(=S)N1CCOCC1)C12CCC3CC(CC(C3)C1)C2 | – | inactive: 19.7% |
| CCCC(=O)N(c1ccc2oc(C)c(C(C)=O)c2c1)S(=O)(=O)c1ccc(C(=O)O)cc1 | – | inconclusive: -27.5% [inhibitor] |
| CCOC(=O)C1C2C=CC(CC2)N1c1ccccc1 (centres undefined) | – | inactive: -3.54% |
| O=C(NC(=S)NCc1ccc(F)cc1)c1ccccc1 | inconclusive [inhibitor, single point] | – |
| COc1ccccc1C(=O)NC1(C(F)(F)F)C(=O)Nc2c1c(=O)[nH]c(=O)n2-c1ccccc1 (centres undefined) | – | inactive: -6.45% |
| Oc1ccc(C[C@H]2CNC(=S)N2CC2CCCN2C[C@H](Cc2ccccc2)N2C[C@H](Cc3ccc(O)cc3)N(CCc3ccccc3)C2=S)cc1 (some centres undefined) | active: 23.1 µM | – |
| COCCNC(=O)C1CCCN(S(=O)(=O)c2c(C)noc2/C=C/c2cccs2)C1 (centres undefined) | inconclusive [inhibitor, single point] | – |
| CC1=CC[C@@]2(CO)COC(c3ccccc3O)C1C2 (some centres undefined) | – | inactive: 9.21% [at 9.04 µM] |
| Cc1ccc2nc3n(c(=O)c2c1)-c1ncccc1C(=O)NC3Cc1ccccc1 (centres undefined) | inconclusive [inhibitor, single point] | – |
| COC(=O)C1CCN(CC(=O)Nc2ccccc2Sc2ccccc2)CC1 | inconclusive [inhibitor, single point] | – |

| Compound | Potency | activity change, negative = growth inhibition |
| --- | --- | --- |
| CCN(CC)S(=O)(=O)c1ccc(OC)c(NC(=O)c2cc(=O)[nH]c3ccccc23)c1 | inconclusive [inhibitor, single point] | – |
| COc1ccc2c(CC(=O)OCC(=O)N3CCc4ccccc43)coc2c1 | active: 18.4 µM | – |
| C=C(C)C1CC=C(C)/C(=N/NC(=O)C2CC2c2ccccc2)C1 (centres undefined) | inconclusive [inhibitor, partial curve, poor fit] | – |
| COc1ccc(NC(=O)N2CCC3(CC2)CCN(C(=O)c2ccncc2)CC3)cc1 | – | inactive: -13.5% |
| CCN(C(=O)Nc1cccc(Cl)c1)c1ccccc1 | – | inactive: -16.6% |
| Oc1ccc(N=Cc2ccc(O)c(O)c2)cc1 | inconclusive [inhibitor, single point] | – |
| COc1ccc(OC)c(/C=N\NC(=O)c2cc3c(ccc4ccccc43)o2)c1 | inconclusive [inhibitor, single point] | – |
| Cc1ccc(S(=O)(=O)N2[C@@H](c3ccc(Cl)cc3)C(C(=O)O)=C[C@H]2C(C)(C)C)cc1 | – | inactive: -19.7% |
| CCC(CC)COC(=O)C1=C(C)NC(=O)NC1c1ccc2c(c1)OCO2 (centres undefined) | inconclusive [inhibitor, single point] | – |
| COc1ccc(N2CCN(C(=O)c3ccc(NS(=O)(=O)c4cccc(F)c4)cc3)CC2)cc1 | inconclusive [inhibitor, single point] | – |
| Cc1ccc(S(=O)(=O)N2[C@@H](CO)CO[C@H]2CC(=O)c2cccs2)cc1 | inconclusive [inhibitor, single point] | – |
| CCC(=O)Nc1cccc(NC(=S)NC(=O)c2cccc(C)c2)c1 | inconclusive [inhibitor, partial curve, poor fit] | – |
| O=C(Cn1c(-c2ccccn2)nc2ccccc21)N/N=C/c1cccnc1 | – | inconclusive: -34.6% [inhibitor] |
| COc1cccc(C(=O)COC(=O)CCC(=O)NC2CCCCC2)c1 | – | inconclusive: -31.8% [inhibitor] |
| O=C(COc1ccc(F)cc1)NNC(=O)Cn1ccc(C(F)(F)F)n1 | – | inactive: -0.929% |
| Cc1ccc(NS(=O)(=O)c2ccc3nc(-c4ccccc4)[nH]c3c2)c(Cl)c1 | inconclusive [inhibitor, single point] | – |
| O=C(NC1CCN(Cc2ccccc2)CC1)c1cccc(S(=O)(=O)Nc2cc(C(F)(F)F)ccc2Cl)c1 | inconclusive [inhibitor, partial curve] | – |
| CN(C(=O)c1ccc(NC(=O)Cc2cccc(NC(=O)C3CCCN(C(=O)CCc4ccccc4)C3)c2)cc1)C1CCCC1 (centres undefined) | inconclusive [inhibitor, single point] | – |
| O=C(Nc1ccccn1)c1csc2c1CCCC2 | – | inactive: -0.648% |
| Cc1ccc(CCc2nnc(SCC(=O)Nc3ccccc3Cl)n2-c2ccccc2)o1 | inconclusive [inhibitor, single point] | – |
| O=C(Cc1ccccc1)NC1(O)C(=O)c2ccccc2C1=O | inconclusive [inhibitor, single point] | – |
| CC1=C(C)/C(=N/OC(=O)c2cccc([N+](=O)[O-])c2)C=CC1=O | active: 20.6 µM | – |
| CC(C)c1cccc(-c2csc(C(C)(O)c3cccc(F)c3)n2)c1 (centres undefined) | inconclusive [inhibitor, single point] | – |
